“Also recorded” adds a separate entry of the source.
Tests used:
[1] = tested on: 6,000 human membrane protein clones; assay: Membrane Proteome Array (MPA) specificity screen; type: binding; conditions: 20 μg/ml antibody, HEK-293T; listed as EPHA5 H5K3
Procedure: To optimize conditions for test antibody detection, HEK-293T cells and QT6 cells were transfected with plasmids encoding known test antibody targets, Protein A (binds antibody Fc; positive control), or vector alone (pUC; negative control) in 384-well cell-culture plates. After incubation, four four-fold dilutions starting at 20 μg/ml of each test antibody were added in quadruplicate to transfected cells and detected using a single dilution of secondary antibody in a high-throughput immunofluorescence flow cytometry assay. Data from assay setup experiments were used to determine the optimal screening conditions for high-throughput immunodetection (Table E4). Optimal screening concentrations were determined by the background signal (mean fluorescence intensity (MFI)), and false positive rate in the vector control.
Membrane Proteome Array: Membrane Proteome Array (MPA) screening was conducted at Integral Molecular. The MPA is a protein library composed of 6,000 human membrane protein clones, each overexpressed in live cells from expression plasmids. […] Before screening on the MPA, the test antibody concentration for screening was determined on cells expressing positive (membrane-tethered Protein A) and negative (mock-transfected) binding controls, followed by detection by flow cytometry using a fluorescently-labeled secondary antibody. […]

rhEphA5 antigen = target: T1, rhEphA5 antigen (Homo sapiens, UniProt P54756); assay: kd (1/s)
T1 construct: purchased R and D systems 3036-A5
T1 sequence (P54756 25-1037 limits assumed): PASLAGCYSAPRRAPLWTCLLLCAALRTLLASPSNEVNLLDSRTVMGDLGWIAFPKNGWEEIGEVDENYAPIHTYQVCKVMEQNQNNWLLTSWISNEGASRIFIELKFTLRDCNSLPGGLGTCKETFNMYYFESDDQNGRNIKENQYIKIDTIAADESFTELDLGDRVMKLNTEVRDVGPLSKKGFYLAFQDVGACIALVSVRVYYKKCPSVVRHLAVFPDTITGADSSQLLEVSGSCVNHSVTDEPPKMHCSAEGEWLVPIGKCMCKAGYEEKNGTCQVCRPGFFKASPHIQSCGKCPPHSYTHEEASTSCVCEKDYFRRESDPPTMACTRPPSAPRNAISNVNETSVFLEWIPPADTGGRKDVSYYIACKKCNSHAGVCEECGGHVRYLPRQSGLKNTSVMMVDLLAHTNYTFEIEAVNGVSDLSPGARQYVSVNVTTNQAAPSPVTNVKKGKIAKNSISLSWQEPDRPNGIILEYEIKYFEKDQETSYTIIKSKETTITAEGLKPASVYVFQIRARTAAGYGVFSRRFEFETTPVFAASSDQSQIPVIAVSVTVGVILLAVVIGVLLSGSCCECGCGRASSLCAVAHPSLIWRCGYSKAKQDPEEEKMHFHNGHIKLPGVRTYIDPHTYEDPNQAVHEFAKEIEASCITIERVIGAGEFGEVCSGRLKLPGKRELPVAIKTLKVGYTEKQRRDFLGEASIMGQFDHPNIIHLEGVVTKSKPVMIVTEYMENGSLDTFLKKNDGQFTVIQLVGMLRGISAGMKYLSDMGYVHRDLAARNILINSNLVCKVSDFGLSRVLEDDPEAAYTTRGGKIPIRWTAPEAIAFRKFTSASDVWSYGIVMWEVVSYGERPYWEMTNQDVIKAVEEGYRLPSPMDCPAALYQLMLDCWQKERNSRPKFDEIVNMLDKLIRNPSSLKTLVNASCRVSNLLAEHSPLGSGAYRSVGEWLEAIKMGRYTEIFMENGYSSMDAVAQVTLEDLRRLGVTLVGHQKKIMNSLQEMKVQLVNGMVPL
Procedure: Table printed on a drawing sheet, FIG. 13
Head of the field: kd (1/s)
The patent's description of the figure: FIG. 13 is a table illustrating the single cycle kinetic parameters of chimeric (VH0/VK0) and humanized 11C12 variants (tested as cell culture supernatants) binding to rhEphA5 antigen as determined using the Biacore T200. The relative KD was calculated by dividing the KD of the humanized variant by that of the VH0/VK0 (top row) assayed in the same experiment. The variants marked with ‘*’ have KD values that are within two-fold of, or are better than, the chimeric antibody. The chimeric and selected variants marked in ‘#’ were identified as the main leads for purification. […]
Where the first naming reader finds the target: description_of_the_figure: humanized 11C12 variants (tested as cell culture supernatants) binding to rhEphA5 antigen as determined using the Biacore T200

[2] = tested on: A549 cell line-derived human lung cancer xenograft model; assay: A549 xenograft efficacy; type: in vivo, mice
[3] = tested on: H522-derived Xenograft Model of Human Lung Cancer; assay: H522 xenograft efficacy; type: in vivo, mice; conditions: for tumor regression: 3 doses

B1: VH5/VK3: humanized anti-EphA5 IgG1/kappa antibody, heavy chain SEQ ID NO:39, light chain SEQ ID NO:40 (antibody)
heavy: EVQLVESGGGLVQPGGSLKLSCAASGFTFSTFGIHWVRQAPGKGLEWVAYISGASTTIYYADSVKGRFTISRDNSKNTLYLQMNSLRAEDTAVYYCARYGTSFPYGLDYWGQGTLVTVSSASTKGPSVFPLAPSSKSTSGGTAALGCLVKDYFPEPVTVSWNSGALTSGVHTFPAVLQSSGLYSLSSVVTVPSSSLGTQTYICNVNHKPSNTKVDKRV[letters of human IgG1 Fc left out]
light: DIVMTQSPDSLAVSLGERATINCKASQSVDYDGDSYMNWYQQKPGKAPKLLIYGASNLESGIPDRFSGSGSGTDFTLTISRLEPEDAAVYYCQQSNEDPFTFGQGTKLEIKRTVAAPSVFIFPPSDEQLKSGTASVVCLLNNFYPREAKVQWKVDNALQSGNSQESVTEQDSKDSTYSLSSTLTLSKADYEKHKVYACEVTHQGLSSPVTKSFNRGEC
Identified membrane protein targets, Target gene (HGNC) [1]: EPHA5; also recorded: CPT1B
kd (rhEphA5 antigen): 0.0014 s⁻¹

B2: VH5Vk3-ThioBridge®-VCP-MMAE (conjugate)
heavy: EVQLVESGGGLVQPGGSLKLSCAASGFTFSTFGIHWVRQAPGKGLEWVAYISGASTTIYYADSVKGRFTISRDNSKNTLYLQMNSLRAEDTAVYYCARYGTSFPYGLDYWGQGTLVTVSSASTKGPSVFPLAPSSKSTSGGTAALGCLVKDYFPEPVTVSWNSGALTSGVHTFPAVLQSSGLYSLSSVVTVPSSSLGTQTYICNVNHKPSNTKVDKRV[letters of human IgG1 Fc left out]
light: DIVMTQSPDSLAVSLGERATINCKASQSVDYDGDSYMNWYQQKPGKAPKLLIYGASNLESGIPDRFSGSGSGTDFTLTISRLEPEDAAVYYCQQSNEDPFTFGQGTKLEIKRTVAAPSVFIFPPSDEQLKSGTASVVCLLNNFYPREAKVQWKVDNALQSGNSQESVTEQDSKDSTYSLSSTLTLSKADYEKHKVYACEVTHQGLSSPVTKSFNRGEC
tumor response ([2]; 10 mg/kg i.v. weekly, 3 doses): full regression of all tumors
tumor response of tumors progressing after VH5Vk3-ThioBridge®-(VCP-SN-38)2 ([2]; 10 mg/kg on days 20, 26 and 32, observed until day 38): tumor growth inhibition sustained from day 20-38
time regression was sustained ([3]; first study (FIG. 86)): 60 days
tumor regression ([3]; first study (FIG. 86), group 3 n=10, weekly): full regression was observed for all tumors of group 3
time regression was sustained ([3]; second study (FIG. 88)): 50 days
tumor regression ([3]; second study (FIG. 88), n=5, weekly): full regression in all tumors of the experimental group

Reference: patent US12662541B2, “Antibody-drug conjugates against the receptor tyrosine kinase EphA5” (Rutgers, The State University of New Jersey, priority 2021, dated 2026)
